Test results published in US20050282889A1, “Intracorporeal medicaments for photodynamic treatment of disease” (priority 1996, published 2005).

System: various other gram positive and gram negative bacteria
Test: Photodynamic eradication of microbes
Details: aqueous solution approximately 1 to 10 micromolar; green light 500-600 nm

## O=C1OC2(c3cc(I)c(O)c(I)c3Oc3c2cc(I)c(O)c3I)c2c(Cl)c(Cl)c(Cl)c(Cl)c21 [Rose Bengal, 4,5,6,7-tetrachloro-2′,4′,5′,7′-Tetraiodofluorescein]
  Eradication of microbes: substantial or complete eradication
